According to the supplement of paper PMC4166925:
± gives the standard deviation of the averaged measurements. Over roughly 33,000 sequences, “E-score (dimensionless, -0.5 to 0.5)” has its median near -0.046; the highest 2% begin near 0.36. This is one part of the list.

Tested on: T1, SpTbr T-box DNA-binding domain (GST fusion)
T1 sequence: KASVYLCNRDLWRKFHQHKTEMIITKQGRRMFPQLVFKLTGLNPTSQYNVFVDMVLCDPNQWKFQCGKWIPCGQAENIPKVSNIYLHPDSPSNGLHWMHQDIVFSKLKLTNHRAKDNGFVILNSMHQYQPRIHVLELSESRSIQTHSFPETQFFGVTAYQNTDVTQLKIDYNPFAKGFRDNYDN
Assay: PBM E-score of 8-mer (E-score (dimensionless, -0.5 to 0.5)); Tbr is Tbrain of the sea star Patiria miniata (Pm) or the sea urchin Strongylocentrotus purpuratus (Sp); higher = stronger binding preference; most listed sequences are background and not binding sites
Conditions: the construct has about 5 more residues each side
Experimental: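 Universal protein-binding microarray (Agilent AMADID 016060, 60-bp probes with a 35-bp variable region) incubated with 200 nM GST-fused Strongylocentrotus purpuratus Tbr T-box DNA-binding domain (residues 362-554) in PBS pH 7.5. Scored for every ungapped 8-mer (given with its reverse complement) as E-score (range -0.5 to 0.5; >0.45 counts as bound) and Z-score of median probe intensity. Two replicate arrays (datasets 1 and 2).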
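Further: protein at 200 nM in PBS on universal double-stranded arrays.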

| Sequence | PBM E-score of 8-mer |
| --- | --- |
| AGTCTGAG | -0.024 ± 0.047 |
| AGTTAAGG | -0.0801 ± 0.042 |
| ATTTTATG | -0.0689 ± 0.03 |
| CTACGTGC | 0.039 ± 0.085 |
| CCAGTACG | -0.337 ± 0.092 |
| GCAGAAGA | -0.218 ± 0.017 |
| AGACATAA | -0.0985 ± 0.064 |
| CCGTATAG | -0.0614 ± 0.023 |
| GTCTTTAA | -0.237 ± 0.063 |
| ACACTCCC | 0.2705 ± 0.0005 |
| CATTTTCA | 0.0656 ± 0.088 |
| CAGGAATA | -0.119 ± 0.0038 |
| GGTCCGTA | -0.296 ± 0.021 |
| CCAAGTTA | -0.179 ± 0.014 |
| TTCCGAAA | -0.237 ± 0.11 |
| ATTTAATC | -0.249 ± 0.04 |
| GGAATAAA | -0.172 ± 0.071 |
| CGGACCTA | -0.0608 ± 0.061 |
| GGGTCCAA | -0.128 ± 0.038 |
| ATCATAAA | -0.055 ± 0.0049 |
| TAAGTACA | -0.0343 ± 0.055 |
| AATGGCCT | -0.0378 ± 0.026 |

| Sequence | PBM E-score of 8-mer |
| --- | --- |
| GGATGGAA | -0.27 ± 0.083 |
| ATCAGCAG | -0.00714 ± 0.041 |
| ACAGCGTC | 0.081 ± 0.022 |
| AGGAGCCT | -0.276 ± 0.094 |
| CACTGGAG | -0.148 ± 0.1 |
| ACATCCGG | -0.0474 ± 0.027 |
| GCTTGGGA | -0.232 ± 0.01 |
| CGGACGCC | 0.0453 ± 0.042 |
| AATTTTAA | -0.0444 ± 0.056 |
| GGTTCGCA | 0.378 ± 0.0054 |
| CTGGCTTA | -0.332 ± 0.03 |
| CTGTACCC | -0.14 ± 0.021 |
| GGTAAAGA | -0.113 ± 0.037 |
| AATGAGTA | -0.0297 ± 0.0081 |
| GCGGTGCA | -0.00525 ± 0.019 |
| ATAGCCAA | -0.218 ± 0.074 |
| ATTAAATG | -0.0679 ± 0.074 |
| CGTCTGAA | -0.2253 ± 0.0012 |
| AAATGCCC | -0.155 ± 0.035 |
| ACCTTCCG | 0.134 ± 0.0089 |
| ACGATTTG | 0.142 ± 0.061 |
| CTATTAGC | 0.0737 ± 0.023 |

| Sequence | PBM E-score of 8-mer |
| --- | --- |
| AACTGGGT | 6e-05 ± 0.095 |
| ATCATTTC | -0.204 ± 0.027 |
| ATACAACG | -0.084 ± 0.024 |
| AGTACAAG | -0.144 ± 0.098 |
| AACACCAA | 0.356 ± 0.012 |
| CGCGTCGA | 0.208 ± 0.074 |
| ACAGCACG | 0.0993 ± 0.0083 |
| AAAGGCAC | -0.0612 ± 0.07 |
| CTAAAACC | -0.175 ± 0.062 |
| CGGCCTAG | -0.0214 ± 0.017 |
| ACTACTCA | 0.0241 ± 0.08 |
| ACGTACGT | 0.194 ± 0.11 |
| ACCGAGCG | -0.103 ± 0.03 |
| AGTACTGG | -0.347 ± 0.0073 |
| ACATCGTA | -0.119 ± 0.0033 |
| ATTAAAGA | -0.191 ± 0.085 |
| ATGTTTGC | -0.0213 ± 0.033 |
| TCGTTCCA | -0.0334 ± 0.033 |
| ACATACGA | -0.067 ± 0.049 |
| TCCGTGCA | -0.00022 ± 0.034 |
| GTGATGGA | 0.239 ± 0.012 |
| AGGCCTGG | -0.312 ± 0.031 |

| Sequence | PBM E-score of 8-mer |
| --- | --- |
| ACACAGCG | 0.182 ± 0.013 |
| TAGTCCAA | -0.31 ± 0.0073 |
| CGTTCCAC | 0.0658 ± 0.034 |
| CTTAATTA | -0.16 ± 0.025 |
| CAGACTAC | -0.259 ± 0.017 |
| CAACCTTA | -0.247 ± 0.048 |
| ATAGACTC | -0.332 ± 0.0036 |
| CAAGCCAA | -0.202 ± 0.061 |
| GAGTAGCA | 0.063 ± 0.046 |
| ACTCACCT | 0.291 ± 0.0073 |
| AAAGAGCA | -0.128 ± 0.055 |
| GTTGCTCA | 0.115 ± 0.014 |
| GAGTTTCC | -0.213 ± 0.024 |
| CGGGACAG | -0.113 ± 0.074 |
| AGCGCCAA | 0.242 ± 0.023 |
| GTTACCAA | 0.139 ± 0.035 |
| ACAGAGTC | -0.121 ± 0.0016 |
| CCGAGAGA | -0.0571 ± 0.025 |
| CGGACAGC | -0.109 ± 0.0052 |
| ACGCGCGA | 0.393 ± 0.023 |
